Assay results: publication PMC6919601, “Identification of Plasmodium dipeptidyl aminopeptidase allosteric inhibitors by high throughput screening” (PLoS ONE, 2019)
Values joined by “and” are separate entries in the source; they are usually repeats but may differ in a detail not shown here. Equal entries are not always repeated. Among all 110,000 compounds or so, about 230 (0.21%) showed an effect of 50% or more. Some of the results follow.

molecular target: DPAP1 (Plasmodium falciparum, UniProt Q8IIJ9); test: primary screen, percent inhibition; read by cleavage of a fluorogenic dipeptide substrate; higher = more effect of the substance; design: species or system P. falciparum D10 trophozoite lysates; single well
Sequence (Q8IIJ9 whole entry, looked up): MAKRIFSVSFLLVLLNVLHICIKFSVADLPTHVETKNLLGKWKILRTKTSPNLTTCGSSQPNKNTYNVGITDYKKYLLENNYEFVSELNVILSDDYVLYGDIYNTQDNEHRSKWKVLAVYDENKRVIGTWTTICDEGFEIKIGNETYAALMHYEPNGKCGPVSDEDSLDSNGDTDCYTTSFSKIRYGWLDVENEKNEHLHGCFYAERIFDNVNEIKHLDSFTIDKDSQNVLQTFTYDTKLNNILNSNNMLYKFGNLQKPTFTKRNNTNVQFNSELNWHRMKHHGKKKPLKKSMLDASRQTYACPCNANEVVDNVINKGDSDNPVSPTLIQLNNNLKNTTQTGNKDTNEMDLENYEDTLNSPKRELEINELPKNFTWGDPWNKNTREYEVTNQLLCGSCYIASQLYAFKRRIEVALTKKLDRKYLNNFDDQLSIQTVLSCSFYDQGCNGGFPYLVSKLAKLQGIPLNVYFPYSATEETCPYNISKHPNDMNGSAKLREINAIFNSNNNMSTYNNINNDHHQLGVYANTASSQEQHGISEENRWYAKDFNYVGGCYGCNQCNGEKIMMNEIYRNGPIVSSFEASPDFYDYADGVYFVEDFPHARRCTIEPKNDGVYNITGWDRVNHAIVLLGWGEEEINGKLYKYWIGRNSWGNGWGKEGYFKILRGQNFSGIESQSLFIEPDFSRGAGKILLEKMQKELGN
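Also: 30 min substrate incubation versus DMSO and 10 µM JCP410 controls.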

| SMILES | % Inhibition @ 10 uM |
| --- | --- |
| COC(=O)C1C(=O)c2c(n[nH]c2C)CC1(C)C (stereo not drawn) | -2.55% |
| CC1CCN(C(=O)CCCc2nnc3n(C)c(=O)c4sccc4n23)CC1 | -7.48% |
| CN(C)CCN(Cc1ccccc1)Cc1ccccc1Br | 2.7% |
| CCN(CC)c1nc(N2CCOCC2)nc(N2CCOCC2)n1 | -6.25% |
| Cc1ccc2c(c1)c(-c1ccccc1)c(-c1ccccc1)n2CC(O)CN1CCCCC1 (stereo not drawn) | -8.99% |
| COc1ccc(-c2csc(-c3c[nH]c4ccccc34)n2)cc1 | 0.291% |
| CCOc1cc(/C=C(/C#N)C(N)=O)ccc1O | -2.66% |
| CCC(C)[C@@H](C(=O)NCCc1ccccc1)N1Cc2ccccc2C1=O (stereo partly drawn) | 1.26% |
| COc1ccc(C)cc1NC(=O)Cn1cnc2c1c(=O)n(C)c(=O)n2C | -3.87% |
| CC(NC(=O)c1ccco1)c1cc2c(cc1Cl)OCCCO2 (stereo not drawn) | -1.28% |
| O=C(NCC1CCCO1)c1ccc(Cn2c(SCc3ccc(F)cc3)nc3cccnc32)cc1 (stereo not drawn) | 9.02% |
| Cc1nn(-c2ccccc2)c(-n2cccc2)c1C(=O)NCc1cccc(Cl)c1 | 3.4% |
| COc1ccc2c(CNCc3ccc(OC(C)C)cc3)c(C(=O)O)[nH]c2c1 | 0.711% |
| O=C1NC(=O)/C(=C\c2ccc(OCc3cccc(C(=O)O)c3)cc2)N1 | 3.49% |
| Fc1ccc(N2CCN(Cc3cc(Br)cs3)CC2)cc1 | -7.6% |
| FC(F)(F)c1cc(-c2ccccc2)nc(-n2ccnc2)n1 | -4.43% |
| Nc1c(C(=O)Nc2c(F)cc(F)cc2Br)sc2nc3c(cc12)CCC3 | -4.15% |
| O=C(Nc1cccnc1)c1cc2nc(-c3ccc(Cl)s3)cc(C(F)(F)F)n2n1 | 5.54% |
| CCOc1ccc(C2=CC(c3ccc(OC(F)F)cc3)n3nnnc3N2)cc1Cl (stereo not drawn) | 0.0842% |
| COc1ccc(S(=O)(=O)N2CCCCC2)cc1 | -2.21% |
| COc1ccc(CCNS(=O)(=O)c2ccc(CN3C(=O)c4cccnc4C3=O)s2)cc1OC | -5.16% |
| NS(=O)(=O)c1ccc(CCNC(=O)CC(c2ccccc2)c2ccccc2)cc1 | -12.8% |
| CC[C@H](C)[C@H](NC(=O)c1cccc(F)c1)C(=O)N[C@@H](CCc1ccccc1)C(=O)CO | -7.36% |
| CC(NC(=O)c1ccccc1)C(O)c1ccccc1 (stereo not drawn) | 0.035% |
| CCc1c(C#N)c(SCC(=O)Nc2cccc(OC)c2)nc2c1C(=O)CC(C)(C)C2 | 0.722% |
| COc1ccc(OCC2c3cc(OC)c(OC)cc3CCN2C(=O)c2cc(OC)cc(OC)c2)cc1 (stereo not drawn) | -2.7% |

| SMILES | % Inhibition @ 10 uM |
| --- | --- |
| C=Cn1nccc1C(O)(CCCN(C)C)c1ccncc1 (stereo not drawn) | 1.89% |
| Cc1ccc(S(=O)(=O)Nc2nn(CC(C)C)c3nc4ccccc4cc23)cc1 | -0.671% |
| Cc1cc(C)nc(SCC(=O)c2ccc(F)c(C)c2)n1 | 5.63% |
| Cc1ccsc1CN1CCCC(CO)C1 (stereo not drawn) | -3.27% |
| COC(=O)c1c(NC(=O)c2cccnc2Cl)sc2c1CCCCC2 | 1.13% |
| Cc1cccn2cc(CNC(=O)c3ccc(Br)o3)nc12 | 4.86% |
| N#C/C(C1=NCCC1)=C(/O)c1ccccc1 | 0.266% |
| Cc1cc2ccccc2cc1CN1CCOCC1 | -5.59% |
| CC(NC(=O)/C=C/c1ccccc1Cl)c1ccccc1 (stereo not drawn) | -4.01% and 0.736% |
| N#CC1=C(N)Oc2[nH]nc(-c3ccccc3)c2C1c1ccccc1Br (stereo not drawn) | -4.33% |
| CCOC(=O)c1ccc(-c2ccc(/C=C(\C#N)c3[nH]nc(N)c3C#N)o2)cc1 | 0.997% |
| O=C(NCc1ccccc1Cl)c1cc(S(=O)(=O)N2CCCCC2)c[nH]1 | 0.274% |
| CCc1ccc(C2c3c(oc4cc(C)c(C)cc4c3=O)C(=O)N2CCCN2CCOCC2)cc1 (stereo not drawn) | 2.31% |
| Cc1ccc(C)c(S(=O)(=O)N2CCOCC2)c1 | -0.268% |
| Oc1nsnc1N1CCCCC1 | -4.75% |
| Cc1ccc(C)c(NC(=O)CN(c2cc(Cl)ccc2C)S(C)(=O)=O)c1 | 3.09% |
| Cc1cccc2[nH]c(SCc3ccccc3)nc12 | -2.88% |
| COc1cc(Br)c(CNC2CCCCC2C)cc1OC (stereo not drawn) | -8.3% |
| Cc1ccc2c(C)c(C(=O)N(Cc3ccccc3F)C3CCS(=O)(=O)C3)oc2c1C (stereo not drawn) | 3.62% |
| CCCSCCCn1cnc2c3cc(OC)ccc3nc-2c1O | 3.24% |
| N#CC1=C(N)OC(c2ccccc2)=C(n2nnnc2N)C1c1cccnc1 (stereo not drawn) | -5.36% |
| CCOC(=O)c1cnc2c(ccc3ccccc32)c1NC1CCCCC1 | -3.06% |
| O=C(CSc1oc(-c2ccco2)nc1S(=O)(=O)c1ccccc1)c1ccccc1 | 4.77% |
| COc1ccc(S(=O)(=O)Nc2ccc(Cl)c(Cl)c2)cc1 | 6.6% |
| CCOC(=O)c1c(NC(=O)c2ccc(S(=O)(=O)N3CCOCC3)cc2)sc2c1CCN(C)C2 | 7.26% |
